Source: PubChem BioAssay AID504832 (National Center for Advancing Translational Sciences (NCATS), 2011)
Out of some 310,000 compounds screened, about 18,000 (5.8%) were called active. This list was built around the results that the source calls inconclusive (neither active nor inactive); the mix of calls is not that of the screen. Calls follow the shape of the dose curve; as a rule, active = well fitted inhibition curve with a large enough effect; inconclusive = small, poorly fitted or top-dose-only effect, or another doubt; inactive = no such curve, though single readings can be large or run the other way. Potencies of inconclusive entries are left out as doubtful fits.

experiment: Primary qHTS for delayed death inhibitors of the malarial parasite plastid, 48 hour incubation; settings: P. falciparum luciferase growth in erythrocytes; series mostly up to 28.7 µM; activity change, negative = inhibition: at the top concentration
In short: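 Read-out is firefly luciferase luminescence from an integrated reporter in P. falciparum, so falling signal marks reduced parasite growth. Infected erythrocytes were at 2% hematocrit and 0.1% parasitemia (final) in Albumax-supplemented RPMI 1640.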
% is scaled to controls: 0 for no effect and ±100 for the full control effect; potency is read from the fitted curve at half-maximal effect; tags tell the direction and shape of the fitted curve.

Structure (SMILES) | Potency | activity change, negative = inhibition
CN1c2cccc3cccc(c23)N(C)C1c1cccs1 | inconclusive [inhibitor, single point] | 
CCOC(=O)[C@H]1[C@H]2COc3ccccc3[C@@H]2N2C(=O)c3ccccc3NC(=O)[C@@]12C | inconclusive [inhibitor, single point] | 
COc1ccc(CSCCNC(=S)Nc2ccccc2)cc1Cl | inconclusive [inhibitor, single point] | 
COc1ccccc1N1CCN(CC(=O)Nc2ccc(-n3cnnn3)cc2)CC1 |  | inactive: -9.5%
Cc1ccc(-n2c(SCCN)nnc2-c2cccc(C)c2)cc1 | active: 10.4 µM | 
COC(C(=O)Nc1ccnn1C1CCN(C(=O)c2ccc(C=O)cc2)CC1)c1ccccc1 (stereo unspecified) | inconclusive [inhibitor, single point] | 
O=C(NCCS(=O)(=O)N1CCN(Cc2ccccc2)CC1)c1ccccc1 |  | inactive: 0.442%
O=C(NCCCN1CCOCC1)c1ccccc1N1C(=O)[C@@H]2Cc3c([nH]c4ccccc34)C(c3cccc(Cl)c3)N2C1=O (stereo partly specified) | inconclusive [inhibitor, partial curve] | 
CCOC(=O)c1c(-c2ccc(C)o2)csc1NC(=S)NC(=O)c1ccccc1Br | active: 13.1 µM | 
COc1ccccc1CN(C)C(=O)c1cc(-c2cc(OC)c(OC)c(OC)c2)nc2ccccc12 | inconclusive [inhibitor, partial curve] | 
CC(C)NC(=S)N=Nc1c(O)[nH]c2ccc([N+](=O)[O-])cc12 | inconclusive [inhibitor, single point] | 
Cc1ccc(OC(=S)Nc2ccccc2)c(C)c1 | inconclusive [inhibitor, single point] | 
C[C@H](NC(=O)[C@@H]1Cc2ccccc2CN1C(=O)OC(C)(C)C)C(=O)NCc1ccco1 | inconclusive [inhibitor, partial curve, poor fit] | 
COCCN(C(=O)COC(=O)/C=C/c1ccc(C)o1)c1c(N)n(Cc2ccccc2)c(=O)[nH]c1=O |  | inactive: -9.96%
COc1ccc(C(=O)O/N=C(/c2ccccc2)c2ccncc2)cc1 |  | inactive: 184%
COc1ccc(-c2nc(CN3CCN(c4ccccc4OC)CC3)c(C)o2)cc1 | inconclusive [inhibitor, single point] | 
COCCN=C1NN=C(c2ccc(C)c([N+](=O)[O-])c2)CS1 |  | inactive: 185%
Cc1ccc(-n2c(C)cc(/C=C(\C#N)C(=O)NCC3CCCO3)c2C)cc1 (stereo unspecified) | inconclusive [inhibitor, single point] | 
c1ccc(-c2nc(NCc3ccco3)c3ccccc3n2)nc1 | active: 2.62 µM | 
CC1CCCN(S(=O)(=O)c2ccc3c(c2)C(C)(C)C(=O)N3C)C1 (stereo unspecified) | inconclusive [inhibitor, single point] | 
Cc1ccc2nc(NC(=O)C3CCCN(S(=O)(=O)c4cccc5nonc45)C3)sc2c1 (stereo unspecified) |  | inactive: 0%
CCOc1ccc2nc(NCCCNS(=O)(=O)c3ccc(C)cc3)c(C#N)cc2c1 | inconclusive [inhibitor, partial curve, poor fit] | 
CC(=O)N(C)c1ccc(OCC(O)CN(c2ccccc2C)S(=O)(=O)c2ccc(C)cc2)cc1 (stereo unspecified) | active: 13.1 µM | 
CCn1c(-c2cc3c(C(F)(F)F)nn(C)c3s2)n[nH]c1=S | inconclusive [inhibitor, partial curve] | 

Structure (SMILES) | Potency | activity change, negative = inhibition
Cc1cc(C)c(S(=O)(=O)Cc2ccc(Cl)cc2)c(=O)[nH]1 | active: 10.4 µM | 
COc1ccccc1OCC(=O)Nc1ccncc1 |  | inactive: 52.9%
N#CC(=C=[N-])c1nc2ccccc2nc1-[n+]1cccc(NC(=O)c2ccc(F)cc2)c1 | inconclusive [inhibitor, partial curve, poor fit] | 
O=C(Nc1ccc2c(c1)OCO2)c1c[nH]c(=O)n(-c2ccc(F)cc2)c1=O | inconclusive [inhibitor, single point] | 
CCOC(=O)c1ccc(S(=O)(=O)N2CCN(Cc3cc4c(cc3O)OCO4)CC2)cc1 |  | inactive: -17%
O=C(CN1CCN(Cc2ccccc2Cl)CC1)N/N=C/c1ccccn1 |  | inactive: -17.5%
O=[N+]([O-])c1cc(/C=N/O)ccc1Sc1ccccc1 |  | inactive: 11.7%
CCO[C@@H]1OC(C(=O)NCc2ccccc2)=C[C@H](c2coc3ccccc3c2=O)[C@H]1CCCO | inconclusive [inhibitor, single point] | 
COc1ccc(C2CN=NC2C(=O)c2ccccc2)cc1 (stereo unspecified) | active: 14.7 µM | 
CCC(=O)NC(/C=C/c1ccccc1)c1cc([N+](=O)[O-])c2cccnc2c1O (stereo unspecified) |  | inactive: 9.26%
O=C(Nc1ccc(F)cc1)c1cc(S(=O)(=O)N2CCCCC2)ccc1F |  | inactive: -0.678%
CCOC(=O)c1c(CC(C)C)csc1NC(=O)COC(=O)c1ccc(O)cc1 | inconclusive [inhibitor, single point] | 
O=C(CNC(=S)N(Cc1ccccc1)Cc1ccccc1F)NCCc1ccc(Cl)cc1 | active: 11.7 µM | 
Cc1ccccc1OS(=O)(=O)c1cn(C)c(=O)n(C)c1=O |  | inactive: 20.2%
COc1ccc(-n2c(C)cc(SC)c(C(C)=O)c2=S)cc1 | inconclusive [inhibitor, partial curve] | 
COC(=O)c1c(C)[nH]c(C(=O)CC#N)c1C | inconclusive [inhibitor, partial curve, poor fit] | 
Cc1ccc2[nH]c(=O)c3cc(C(=O)NC(C)C)sc3c2c1 | inconclusive [inhibitor, full curve] | 
NC(=NC(=O)c1ccccc1)N1CCN(C(c2ccccc2)c2ccccc2)CC1 | inconclusive [inhibitor, single point] | 
Cc1ccccc1NC(=O)c1cc2ccccc2o1 |  | inactive: 179%
COc1ccc(N(C)C(=O)c2ccc3c(Cl)c4c(nc3c2)CCCC4)c(OC)c1 | inconclusive [inhibitor, single point] | 
CCN(CC)CCNC(=O)c1ccc(NC(=O)c2cn(-c3ccccc3)nc2-c2cccs2)cc1 | active: 11.7 µM | 
CN1CCc2nc(SCC(=O)Nc3cccc(F)c3)c(C#N)c(-c3cccs3)c2C1 | active: 13.1 µM | 
O=[N+]([O-])c1c(C(Cl)Cl)nn(-c2ccccc2)c1N1CCOCC1 | inconclusive [inhibitor, full curve] | 
CN1CCN(CCc2nc3cc(NC(=O)COc4ccc([N+](=O)[O-])cc4)ccc3n2C)CC1 | inconclusive [inhibitor, partial curve] | 

Structure (SMILES) | Potency | activity change, negative = inhibition
COc1ccc(-c2n(Cc3ccccc3)c3ccccc3[n+]2Cc2ccccc2)cc1 | active: 0.37 µM | 
N#Cc1nc(N2CCCCC2)nc(N2CCOCC2)n1 | inconclusive [inhibitor, partial curve, poor fit] | 
CC(=O)N1CCN(c2nc(-c3cccs3)nc3ccccc23)CC1 | inconclusive [inhibitor, partial curve, poor fit] | 
C/C(Cl)=C/Cn1c(SCc2ccc(Cl)cc2)nc2c1c(=O)[nH]c(=O)n2C | inconclusive [inhibitor, partial curve, poor fit] | 
COCCn1c(C)cc(/C=C(\C#N)C(=O)OCC(=O)N(C)c2c(N)n(Cc3ccccc3)c(=O)[nH]c2=O)c1C | inconclusive [inhibitor, single point] | 
COc1ccccc1S(=O)(=O)Cc1ccc(C(=O)NCCCN2CCN(c3ccc(F)cc3)CC2)o1 | inconclusive [inhibitor, single point] | 
O=C(NCCC1=CCCCC1)c1coc(=O)c(Br)c1 |  | inactive: -1.52%
O=[N+]([O-])c1ccccc1S(=O)(=O)NCCSCc1ccco1 |  | inactive: -26.7%
CC(=O)Nc1ccc(S(=O)(=O)N(C)CC(=O)OCC(=O)N(C)c2ccccc2)cc1 |  | inactive: 5.04%
Cc1nc(Cl)sc1C(=O)O | inconclusive [inhibitor, single point] | 
CCN(CC(=O)Nc1cccc(S(=O)(=O)N2CCCC2)c1)CC(=O)Nc1ccccc1OC | inconclusive [inhibitor, partial curve, poor fit] | 
O=C(N/N=C/c1ccccn1)c1ccc(Cl)c(Cl)c1 | active: 14.7 µM | 
COc1cccc(C(=O)NN/C(C)=C/C(=O)C(F)(F)C(F)(F)C(F)(F)F)c1 |  | inactive: -0.241%
O=C(CN(CC1CCCO1)C(=O)CNS(=O)(=O)c1ccc(F)cc1)NCCc1ccccc1 (stereo unspecified) |  | inactive: 31.6%
CCOC(=O)C1CCCN(C2CC(=O)N(c3cccc(C)c3)C2=O)C1 (stereo unspecified) |  | inactive: 7.05%
Cc1ccc(S(=O)(=O)N2CCOCC2)cc1C(=O)OCC(=O)NCc1ccccc1 | inconclusive [inhibitor, partial curve, poor fit] | 
CC(=O)NC1=NN(C(C)=O)C(c2ccc(F)cc2)S1 (stereo unspecified) |  | inactive: 32.1%
CCOC(=O)CNC(=O)C12CC3CC(C1)CC(c1ccc(C)cc1)(C3)C2 |  | inactive: 0%
Nc1ncc(Br)cc1S(=O)(=O)N1CCCCCC1 |  | inactive: 7.23%
CCOC(=O)C1=C(CNCc2ccc(F)cc2)NC(=O)NC1c1cccc([N+](=O)[O-])c1 (stereo unspecified) | inconclusive [inhibitor, partial curve] | 
Cc1cc(F)ccc1S(=O)(=O)N1CCC2(CC1)OCCN2S(=O)(=O)c1cccs1 | inconclusive [inhibitor, single point] | 
Cc1cc(C)c(S(=O)(=O)NCC2CCC(C(=O)NCc3ccccn3)CC2)c(C)c1 (stereo unspecified) | inconclusive [inhibitor, partial curve] | 
CN(C)c1ncc(S(=O)(=O)c2ccccc2)c(=O)[nH]1 |  | inactive: 27%
